Source: the supplement of paper PMC8728848
The other results are listed elsewhere or left out.

What was measured:
Assay in all cases: glycan array binding signal (z-score within array); higher = stronger binding
Conditions in all cases: glycan notation: IUPAC condensed, linker removed
GlcNAc(b1-3)Gal(b1-4)Glc = target: GlcNAc(b1-3)Gal(b1-4)Glc
Method in brief: (§1)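 Glycan array data were curated from 3228 arrays in the Consortium for Functional Glycomics database and kept only where the protein sequence was available. Glycan names were converted to IUPAC-condensed notation, and columns mapping to the same glycan were averaged. The binding signal is a within-array Z-score, averaged across arrays of the same protein sequence at different concentrations or buffers and across linkers. Negative Z-scores can be read as non-binding.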

[1] = target: GlcNAc(b1-3)Gal(b1-4)GlcNAc
Method in brief: as §1

[2] = target: GlcNAc(b1-3)Gal(b1-4)GlcNAc(b1-2)Man(a1-3)[GlcNAc(b1-3)Gal(b1-4)GlcNAc(b1-2)Man(a1-6)]Man(b1-4)GlcNAc(b1-4)GlcNAc
Method in brief: as §1

[3] = target: GlcNAc(b1-3)Gal(b1-4)GlcNAc(b1-2)Man(a1-3)[GlcNAc(b1-3)Gal(b1-4)GlcNAc(b1-2)Man(a1-6)]Man(b1-4)GlcNAc(b1-4)[Fuc(a1-6)]GlcNAc
Method in brief: as §1

[4] = target: GlcNAc(b1-3)Gal(b1-4)GlcNAc(b1-2)[GlcNAc(b1-3)Gal(b1-4)GlcNAc(b1-6)]Man(a1-6)[GlcNAc(b1-3)Gal(b1-4)GlcNAc(b1-2)Man(a1-3)]Man(b1-4)GlcNAc(b1-4)GlcNAc
Method in brief: as §1

[5] = target: GlcNAc(b1-3)Gal(b1-4)GlcNAc(b1-3)Gal(b1-4)GlcNAc
Method in brief: as §1

[6] = target: GlcNAc(b1-3)Gal(b1-4)GlcNAc(b1-3)Gal(b1-4)GlcNAc(b1-2)Man(a1-3)[GlcNAc(b1-3)Gal(b1-4)GlcNAc(b1-3)Gal(b1-4)GlcNAc(b1-2)Man(a1-6)]Man(b1-4)GlcNAc(b1-4)GlcNAc
Method in brief: as §1

[7] = target: GlcNAc(b1-3)Gal(b1-4)GlcNAc(b1-3)Gal(b1-4)GlcNAc(b1-2)Man(a1-3)[GlcNAc(b1-3)Gal(b1-4)GlcNAc(b1-3)Gal(b1-4)GlcNAc(b1-2)Man(a1-6)]Man(b1-4)GlcNAc(b1-4)[Fuc(a1-6)]GlcNAc
Method in brief: as §1

[8] = target: GlcNAc(b1-3)Gal(b1-4)GlcNAc(b1-3)Gal(b1-4)GlcNAc(b1-2)[GlcNAc(b1-3)Gal(b1-4)GlcNAc(b1-3)Gal(b1-4)GlcNAc(b1-6)]Man(a1-6)[GlcNAc(b1-3)Gal(b1-4)GlcNAc(b1-3)Gal(b1-4)GlcNAc(b1-2)Man(a1-3)]Man(b1-4)GlcNAc(b1-4)[Fuc(a1-6)]GlcNAc
Method in brief: as §1

[9] = target: GlcNAc(b1-3)Gal(b1-4)GlcNAc(b1-3)Gal(b1-4)GlcNAc(b1-3)Gal(b1-4)GlcNAc(b1-2)Man(a1-3)[GlcNAc(b1-3)Gal(b1-4)GlcNAc(b1-3)Gal(b1-4)GlcNAc(b1-3)Gal(b1-4)GlcNAc(b1-2)Man(a1-6)]Man(b1-4)GlcNAc(b1-4)GlcNAc
Method in brief: as §1

[10] = target: GlcNAc(b1-3)Gal(b1-4)GlcNAc(b1-3)Gal(b1-4)GlcNAc(b1-3)Gal(b1-4)GlcNAc(b1-2)Man(a1-3)[GlcNAc(b1-3)Gal(b1-4)GlcNAc(b1-3)Gal(b1-4)GlcNAc(b1-3)Gal(b1-4)GlcNAc(b1-2)Man(a1-6)]Man(b1-4)GlcNAc(b1-4)[Fuc(a1-6)]GlcNAc
Method in brief: as §1

[11] = target: GlcNAc(b1-3)Gal(b1-4)GlcNAc(b1-3)Gal(b1-4)GlcNAc(b1-3)Gal(b1-4)GlcNAc(b1-2)[GlcNAc(b1-3)Gal(b1-4)GlcNAc(b1-3)Gal(b1-4)GlcNAc(b1-3)Gal(b1-4)GlcNAc(b1-6)]Man(a1-6)[GlcNAc(b1-3)Gal(b1-4)GlcNAc(b1-3)Gal(b1-4)GlcNAc(b1-3)Gal(b1-4)GlcNAc(b1-2)Man(a1-3)]Man(b1-4)GlcNAc(b1-4)[Fuc(a1-6)]GlcNAc
Method in brief: as §1

[12] = target: GlcNAc(b1-3)Gal(b1-4)GlcNAc(b1-3)Gal(b1-4)GlcNAc(b1-3)Gal(b1-4)GlcNAc(b1-3)Gal(b1-4)GlcNAc(b1-2)Man(a1-3)[GlcNAc(b1-3)Gal(b1-4)GlcNAc(b1-3)Gal(b1-4)GlcNAc(b1-3)Gal(b1-4)GlcNAc(b1-3)Gal(b1-4)GlcNAc(b1-2)Man(a1-6)]Man(b1-4)GlcNAc(b1-4)GlcNAc
Method in brief: as §1

[13] = target: GlcNAc(b1-3)Gal(b1-4)GlcNAc(b1-3)Gal(b1-4)GlcNAc(b1-3)Gal(b1-4)GlcNAc(b1-3)Gal(b1-4)GlcNAc(b1-2)Man(a1-3)[GlcNAc(b1-3)Gal(b1-4)GlcNAc(b1-3)Gal(b1-4)GlcNAc(b1-3)Gal(b1-4)GlcNAc(b1-3)Gal(b1-4)GlcNAc(b1-2)Man(a1-6)]Man(b1-4)GlcNAc(b1-4)[Fuc(a1-6)]GlcNAc
Method in brief: as §1

[14] = target: GlcNAc(b1-3)Gal(b1-4)GlcNAc(b1-3)Gal(b1-4)GlcNAc(b1-3)Gal(b1-4)GlcNAc(b1-3)Gal(b1-4)GlcNAc(b1-2)[GlcNAc(b1-3)Gal(b1-4)GlcNAc(b1-3)Gal(b1-4)GlcNAc(b1-3)Gal(b1-4)GlcNAc(b1-3)Gal(b1-4)GlcNAc(b1-6)]Man(a1-6)[GlcNAc(b1-3)Gal(b1-4)GlcNAc(b1-3)Gal(b1-4)GlcNAc(b1-3)Gal(b1-4)GlcNAc(b1-3)Gal(b1-4)GlcNAc(b1-2)Man(a1-3)]Man(b1-4)GlcNAc(b1-4)[Fuc(a1-6)]GlcNAc
Method in brief: as §1

[15] = target: GlcNAc(b1-3)Gal(b1-4)GlcNAc(b1-3)Gal(b1-4)GlcNAc(b1-3)GalNAc
Method in brief: as §1

[16] = target: GlcNAc(b1-3)Gal(b1-4)GlcNAc(b1-3)GalNAc
Method in brief: as §1

[17] = target: GlcNAc(b1-3)Gal(b1-4)GlcNAc(b1-3)[GlcNAc(b1-3)Gal(b1-4)GlcNAc(b1-3)]GalNAc
Method in brief: as §1

[18] = target: GlcNAc(b1-3)Gal(b1-4)GlcNAc(b1-6)[Gal(b1-3)]GalNAc
Method in brief: as §1

[19] = target: GlcNAc(b1-3)Gal(b1-4)GlcNAc(b1-6)[GlcNAc(b1-3)Gal(b1-3)]GalNAc
Method in brief: as §1

[20] = target: GlcNAc(b1-3)Gal(b1-4)GlcNAc(b1-6)[GlcNAc(b1-3)]Gal(b1-4)GlcNAc
Method in brief: as §1

GlcNAc(b1-3)GalNAc = target: GlcNAc(b1-3)GalNAc
Method in brief: as §1

GlcNAc(b1-3)Man = target: GlcNAc(b1-3)Man
Method in brief: as §1

[21] = target: GlcNAc(b1-3)[GlcNAc(b1-4)][GlcNAc(b1-6)]GlcNAc
Method in brief: as §1

[22] = target: GlcNAc(b1-3)[GlcNAc(b1-6)]Gal(b1-4)GlcNAc
Method in brief: as §1

[23] = target: GlcNAc(b1-3)[GlcNAc(b1-6)]GalNAc
Method in brief: as §1

[24] = target: GlcNAc(b1-4)Gal(b1-4)GlcNAc
Method in brief: as §1

GlcNAc(b1-4)GlcNAc = target: GlcNAc(b1-4)GlcNAc
Method in brief: as §1

[25] = target: GlcNAc(b1-4)GlcNAc(b1-4)GlcNAc
Method in brief: as §1

[26] = target: GlcNAc(b1-4)GlcNAc(b1-4)GlcNAc(b1-4)GlcNAc(b1-4)GlcNAc
Method in brief: as §1

[27] = target: GlcNAc(b1-4)GlcNAc(b1-4)GlcNAc(b1-4)GlcNAc(b1-4)GlcNAc(b1-4)GlcNAc
Method in brief: as §1

[28] = target: GlcNAc(b1-4)[GlcNAc(b1-6)]GalNAc
Method in brief: as §1

[29] = target: GlcNAc(b1-6)Gal(b1-4)GlcNAc
Method in brief: as §1

GlcNAc(b1-6)GalNAc = target: GlcNAc(b1-6)GalNAc
Method in brief: as §1

[30] = target: GlcNAc6S(b1-3)Gal(b1-4)GlcNAc
Method in brief: as §1

Kdn(a2-3)Gal(b1-3)GalNAc = target: Kdn(a2-3)Gal(b1-3)GalNAc
Method in brief: as §1

Kdn(a2-3)Gal(b1-3)GlcNAc = target: Kdn(a2-3)Gal(b1-3)GlcNAc
Method in brief: as §1

B1: PX15618A-bth-503-24-503 (Bacteroides thetaiotaomicron) (protein)
chain: NKSEDKLSGDDFWAQGNETNAEAFLLSIYNSFRNATMSQRPFLTYSGDMRCAPITAYSTGDKYVAYLANNDMGELRNTYPDDARGGLIMQWDVFYTAIQDANILLAEIDKVPGMDELKRSRFKAEAIFMRSLSYFFIVRAFGDVPYYTNAYNEAPLPRTNMVIVLQNCLADLQPLLDDDPGAEVLPWSYSSYSSKGIRASRGSVIALMMHINLWLVQFDAQNKEQYYRNVVSLGEELERNNGAYSLLDINRSSVIFAGGSDEGLFEIAQNINFNEIFMMNAKFSDNVSYSCLNKSMPLFCYSGDYLMTLFPMYEDDARKELWFDEKIYSTSVSSSAPKEIKKFWNIDTYGNGTITSNSGNQIVFRYAGALLLYAEALAALGTNDTKACELLNRVRNRAHASEINTSGSELMDAIFWERCRELIGEGHYYYDLVRTGKVYNRNYCMNPMTRTNFNVGAWTWPIHRNALKNNTQIGLNLFWE
glycan array binding signal (z-score) (GlcNAc(b1-3)Gal(b1-4)Glc): -0.199 | glycan array binding signal (z-score) [1]: -0.625 | glycan array binding signal (z-score) [2]: 0.159 | glycan array binding signal (z-score) [3]: 0.079 | glycan array binding signal (z-score) [4]: 0.313 | glycan array binding signal (z-score) [5]: -0.161 | glycan array binding signal (z-score) [6]: 0.651 | glycan array binding signal (z-score) [7]: 0.722 | glycan array binding signal (z-score) [8]: -0.247 | glycan array binding signal (z-score) [9]: 0.043 | glycan array binding signal (z-score) [10]: 0.037 | glycan array binding signal (z-score) [11]: 0.929 | glycan array binding signal (z-score) [12]: -0.175 | glycan array binding signal (z-score) [13]: 0.014 | glycan array binding signal (z-score) [14]: 1.38 | glycan array binding signal (z-score) [15]: -0.156 | glycan array binding signal (z-score) [16]: 0.059 | glycan array binding signal (z-score) [17]: -0.238 | glycan array binding signal (z-score) [18]: -0.321 | glycan array binding signal (z-score) [19]: -0.094 | glycan array binding signal (z-score) [20]: -0.341 | glycan array binding signal (z-score) (GlcNAc(b1-3)GalNAc): 0.238 | glycan array binding signal (z-score) (GlcNAc(b1-3)Man): 0.147 | glycan array binding signal (z-score) [21]: -0.214 | glycan array binding signal (z-score) [22]: 0.095 | glycan array binding signal (z-score) [23]: -0.177 | glycan array binding signal (z-score) [24]: -0.256 | glycan array binding signal (z-score) (GlcNAc(b1-4)GlcNAc): 0.058 | glycan array binding signal (z-score) [25]: -0.344 | glycan array binding signal (z-score) [26]: -0.231 | glycan array binding signal (z-score) [27]: 0.318 | glycan array binding signal (z-score) [28]: -0.498 | glycan array binding signal (z-score) [29]: -0.704 | glycan array binding signal (z-score) (GlcNAc(b1-6)GalNAc): -0.3 | glycan array binding signal (z-score) [30]: -0.37 | glycan array binding signal (z-score) (Kdn(a2-3)Gal(b1-3)GalNAc): 0.228 | glycan array binding signal (z-score) (Kdn(a2-3)Gal(b1-3)GlcNAc): 0.094
